# Measurements published in the supplement of paper PMC4604168 (melanoma cell lines).
# The other results are listed elsewhere or left out. Most values come without repeats; read them as rough.
# Assays:
# Test in all cases: cell count relative to DMSO control; melanoma cells; higher = more viable cells
# Details in all cases: library dose: low library concentration; 72 h
# WM115 = tested on: WM115
# WM1716 = tested on: WM1716
# WM1745 = tested on: WM1745
# WM3526 = tested on: WM3526
# WM3619 = tested on: WM3619
# WM451Lu = tested on: WM451Lu
# 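Also: cell number obtained by counting DAPI-stained nuclei in high-throughput microscope images with image analysis software, screen run in 1,536-well plates.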
SMILES,cell count (WM115) [%],cell count (WM1716) [%],cell count (WM1745) [%],cell count (WM3526) [%],cell count (WM3619) [%],cell count (WM451Lu) [%]
"C[As](C)SC[C@H](NC(=O)CC[C@H](N)C(=O)O)C(=O)NCC(=O)O [Darinaparsin] + O=C(Nc1ccccc1)c1cc([N+](=O)[O-])ccc1Cl [GW9662] (first compound 0.4 µM, partner dose 2 µM)",93.7,104,114,122,81.4,109
"N.N.[Cl][Pt][Cl] [cisplatin] + COc1ccc2c(c1)CCC1C2CCC2(C)C(NCCCCCCN3C(=O)C=CC3=O)CCC12 [U73122] (first compound 1.6 µM, partner dose 0.4 µM)",98.7,83.2,97.9,80.6,80.2,91.4
"C[C@]12O[C@H](C[C@]1(O)CO)n1c3ccccc3c3c4c(c5c6ccccc6n2c5c31)CNC4=O [Lestaurtinib] + CC(C)(C)c1cnc(CSc2cnc(NC(=O)C3CCNCC3)s2)o1 [SNS-032] (first compound 0.004 µM, partner dose 0.01 µM)",98.9,101,96.8,102,107,134
"Cn1cc(C2=C(c3cn(C4CCN(Cc5ccccn5)CC4)c4ccccc34)C(=O)NC2=O)c2ccccc21 [Enzastaurin] + Cc1cc(SCc2sc(-c3ccc(C(F)(F)F)c(F)c3)nc2C)ccc1OCC(=O)O [GW0742] (first compound 0.8 µM, partner dose 2 µM)",105,94.7,90.4,94.4,78.5,74.3
"C[C@]12O[C@H](C[C@]1(O)CO)n1c3ccccc3c3c4c(c5c6ccccc6n2c5c31)CNC4=O [Lestaurtinib] + COc1ccc2c(c1)CCC1C2CCC2(C)C(NCCCCCCN3C(=O)C=CC3=O)CCC12 [U73122] (first compound 0.004 µM, partner dose 0.4 µM)",119,98,94.3,104,81.1,108
"C[C@]12O[C@H](C[C@]1(O)CO)n1c3ccccc3c3c4c(c5c6ccccc6n2c5c31)CNC4=O [Lestaurtinib] + O=C(CCCCCCC(=O)Nc1ccccc1)NO [vorinostat] (first compound 0.004 µM, partner dose 0.08 µM)",106,120,113,81.6,86.4,80.8
"Cn1cc(C2=C(c3cn(C4CCN(Cc5ccccn5)CC4)c4ccccc34)C(=O)NC2=O)c2ccccc21 [Enzastaurin] + CS(=O)(=O)c1ccc(C(=O)Nc2ccc(Cl)c(-c3ccccn3)c2)c(Cl)c1 [vismodegib] (first compound 0.8 µM, partner dose 1 µM)",103,102,103,109,117,101
"C[As](C)SC[C@H](NC(=O)CC[C@H](N)C(=O)O)C(=O)NCC(=O)O [Darinaparsin] + Oc1nc(-c2ccc(C(F)(F)F)cc2)nc2c1CSCC2 [XAV939] (first compound 0.4 µM, partner dose 2 µM)",84.5,82.1,72.2,121,119,105
"C[C@]12O[C@H](C[C@]1(O)CO)n1c3ccccc3c3c4c(c5c6ccccc6n2c5c31)CNC4=O [Lestaurtinib] + Cc1nc(Nc2ncc(C(=O)Nc3c(C)cccc3Cl)s2)cc(N2CCN(CCO)CC2)n1 [dasatanib] (first compound 0.004 µM, partner dose 0.004 µM)",89.1,88.3,75.4,89,94.4,92.9
"C[C@]12O[C@H](C[C@]1(O)CO)n1c3ccccc3c3c4c(c5c6ccccc6n2c5c31)CNC4=O [Lestaurtinib] + CCN(CC)CCNC(=O)c1c(C)[nH]c(/C=C2\C(=O)Nc3ccc(F)cc32)c1C [sunitinib] (first compound 0.004 µM, partner dose 0.4 µM)",89.6,136,86.8,81.2,97,97.4
"Cn1cc(C2=C(c3cn(C4CCN(Cc5ccccn5)CC4)c4ccccc34)C(=O)NC2=O)c2ccccc21 [Enzastaurin] + COc1ccc(Cl)c(Nc2nc3ccccc3nc2NS(=O)(=O)c2cccc(NC(=O)C(C)(C)N)c2)c1 [XL147] (first compound 0.8 µM, partner dose 0.8 µM)",101,110,76.6,105,86.2,97.5
"C[C@]12O[C@H](C[C@]1(O)CO)n1c3ccccc3c3c4c(c5c6ccccc6n2c5c31)CNC4=O [Lestaurtinib] + C[As](C)SC[C@H](NC(=O)CC[C@H](N)C(=O)O)C(=O)NCC(=O)O [Darinaparsin] (first compound 0.004 µM, partner dose 0.4 µM)",102,114,99.2,97.9,79.5,103
